The assay has as its system MIWI (PIWIL1) piRISC loaded with piRNA #1 (30 nt). Nature of the assay: pre-steady-state target cleavage rate (min^-1); MIWI and MILI are mouse PIWI proteins and EfPiwi is from a freshwater sponge; tags in brackets are library labels; higher = faster piRNA-guided slicing of the target. The settings on record: guide: piRNA #1 5'p-UGAGGUAGUAGGUUGUAUAGUAUCCAGAGG; auxiliary factor: 500 nM mouse GTSF1. An outline of the steps: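 At 33 °C in HEPES–potassium acetate buffer, a transcribed, DNA-blocked target RNA library […] was exposed for 0–8 or 0–960 min to 1 nM active affinity-purified piRISC carrying a single synthetic guide, with or without 500 nM GTSF1 partner protein. Uncleaved targets were sequenced and normalised to depth and to weakly complementary targets. With three trials pooled and k3 capped at 0.0001 min^-1, a burst-and-steady-state fit produced the pre-steady-state cleavage rate.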

± gives the standard deviation. Only a part is listed here, and it is no random draw.
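Note: 1 nM active piRISC with 0.1 nM target library at 33 °C single turnover.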

Turning to GGAGACCUAUGAUAUCAAGCUACUUCCUCA, the “pre-steady-state target cleavage rate” value is < 0.0001. In the case of GGAGACCAUACUAUACACCCUACUACCUCA, the “pre-steady-state target cleavage rate” value amounted to 1.46 ± 0.08. With GGAGACCUAUGAAUACAACCUACUACAUCA, the “pre-steady-state target cleavage rate” value is 0.00568 ± 0.0027. Under GGAGACCAUACUAGACAACCUACUACCUCA stands 1.37 ± 0.13; under GCUCUGGAUACUAGUACAACCUACUACCUCA, 1.58 ± 0.11; under GGAGACCAUACUAAUCAACCUACUACCUCA, 0.458 ± 0.067.

As for GGAGAGCUUACUAUACAACCUACUACCUCA, the “pre-steady-state target cleavage rate” value was 1.51 ± 0.11.

With GGAGACCUAUGAAUUCAUCCUACUACCUCA, the “pre-steady-state target cleavage rate” value is < 0.0001. For GGAGACCUUACAAUACAACCUACUUCCUCA, the “pre-steady-state target cleavage rate” value turned out to be 0.0137 ± 0.0043.

GGUCAGGAUACUAUACAACCUACUACGUCA: the “pre-steady-state target cleavage rate” value is 0.512 ± 0.053. GGAGACCUAUCUAAACAACCUACUAGCUCA: the “pre-steady-state target cleavage rate” value is 0.00614 ± 0.0032. Under GGAGACCUAUGUAUACAACCUACUACCCA stands 0.0026 ± 0.0023.

For the sequence GGUCUGGAUACUAUACAACCUACUAGCCUCA, the “pre-steady-state target cleavage rate” value is 0.606 ± 0.081.

Regarding GGACUGGAUACUAUGCAACCUACUACCUCA, the “pre-steady-state target cleavage rate” value was found to be 1.78 ± 0.12. The result for GGAGACCUUUCUUUACAACCUACUACCUCA reads 0.161 ± 0.026.

For GGAGUGGAUACAAAACAACCUACUACCUCA, the “pre-steady-state target cleavage rate” value is 0.78 ± 0.089. For the sequence CCUCUGGAUACUAUACAAGGAACUACCUCA, the “pre-steady-state target cleavage rate” value is 0.0074 ± 0.0029. Under GGAGACGAUACUAUACAAGCUUCUACCUCA stands 0.175 ± 0.015; under GGACUGGAUUCUAUUCAACCUACUACCUCA, 1.4 ± 0.12. The result for GGUUUGGAUACUAUACAACCUACUACCUCA reads 1.81 ± 0.084; that for GGAGACCUAACUAUACAACCUACUAACCUCA, 0.82 ± 0.063. With GGAGACCUUACUAUACACCCUACUACCUCA, the “pre-steady-state target cleavage rate” value was 1.05 ± 0.063.

Consider CCUCUGGAUACUUUACAACGUACUACCUCA, for which the “pre-steady-state target cleavage rate” value was 0.921 ± 0.054. On to GGAGACCUAAGUAUACAACCUACUAGCUCA, for which the “pre-steady-state target cleavage rate” value stood at 0.0148 ± 0.0044. Under “GGAGACCUAUGAUAUGUUCCUACUUGGAGA [g7:g12:cont:t1A]” stands < 0.0001; under GGAGACCUAUCUAUACAACCUUCUACGUCA, 0.11 ± 0.017; under GGAGACGAUACUAUACAACCUACUACCUGCA, 1.08 ± 0.081. The result for GGACUGGAUACUAUACAAGCUAGUACCUCA reads 0.287 ± 0.061; that for GGAGACGAUACUAUACACCCUACUACCUCA, 1.46 ± 0.069. Regarding GCUCUGGAUACUAUACAACCAACUACCUGA, the “pre-steady-state target cleavage rate” value is 0.0952 ± 0.013.

In the case of CCUCUGGAUACUAUACAACCGACUACCUCA, the “pre-steady-state target cleavage rate” value was found to be 0.0148 ± 0.0039. As for GGACUGGAUACGUAUACAACCUACUACCUCA, the “pre-steady-state target cleavage rate” value came out at 1.4 ± 0.11. Under CCUCUGGAUACUAUACAACCUACUACGAGA stands 0.393 ± 0.08; under GGAGACCUAUCUAUCCAACCUACUACCUCA, 0.485 ± 0.046; under GGAGUGGAUACUAUACAACCGACUACCUCA, 0.0107 ± 0.0017. The result for CCGUCUGGAUACUAUACAACCUACUACCUCA reads 1.86 ± 0.1. As to GGAGUGGAUACUAUACAACCUUCUAGCUCA, the “pre-steady-state target cleavage rate” value was 0.00427 ± 0.0018. The result for GCUGUGGAUACUAUACAACCUACUUCCUCA reads 0.00591 ± 0.0023. Take GGACUGGAUACUAUACAACCUACUACCGCA: the “pre-steady-state target cleavage rate” value amounted to 0.277 ± 0.04. The result for GGAGUGGAUACUAUACAUCGUACUACCUCA reads 0.464 ± 0.048; that for GGACUGGAUACUAUACAAGCUACAACCUCA, 0.506 ± 0.048; that for CCUCUGGAUACUAUAGAACCUACUUCCUCA, 0.3 ± 0.039. Under GGAGACGAUACUAUCAACCUACUACCUCA stands 1.34 ± 0.1. The result for GGUCUGGUUACUAUACAAGCUACUACCUCA reads 1.14 ± 0.06. Turning to GCUCUGGAUACUAAACAACCUACUACCUCA, the “pre-steady-state target cleavage rate” value amounted to 1.69 ± 0.096. The result for GGUCUGGAUACUAUACUACCUACUACCACA reads 1.34 ± 0.13; that for GGAGACCUAUGUGUACAACCUACUACCUCA, 0.0194 ± 0.0048; that for CCUCUGGAUACUAUACAACCUACGACCUCA, 1.37 ± 0.093. Consider GGUCUGGAUACAAUACAACGUACUACCUCA, for which the “pre-steady-state target cleavage rate” value came out at 0.837 ± 0.058. The result for GGAGACGAUACUAUACAUCCUACUUCCUCA reads 0.364 ± 0.035. Under GGAGACCAUACUAUACAACCUUCUUCCUCA stands 0.177 ± 0.021; under GGAGACCUUACUAUACAAGCUACUACCACA, 0.89 ± 0.044; under GGAGUCGAUACUAUACAACGUACUACCUCA, 0.612 ± 0.045. The result for GGAGACCUUACUAUACAAGCUACUACCUCA reads 0.888 ± 0.051. Consider GGAGACCUAACUAAACAAGCUACUACCUCA, for which the “pre-steady-state target cleavage rate” value stood at 0.115 ± 0.025.

For GGAGACCUAUCUAUACACCCUACUACCUCA, the “pre-steady-state target cleavage rate” value was found to be 0.536 ± 0.042. The result for GGAGACGAUACUAUACAACCUACUUCCUCA reads 0.456 ± 0.073. The result for GGAGUGGAUACUAUUCAUCCUACUACCUCA reads 1.04 ± 0.059; that for GCUCUGGAUACUACUACAACCUACUACCUCA, 1.45 ± 0.097; that for GGAGACCAUACUACUACAACCUACUACCUCA, 0.705 ± 0.067. Under GGAGACCUAUGUAUACAACCUACUACCUCCA stands 0.108 ± 0.015; under GGAGACCAUUCUUUACAACCUACUACCUCA, 0.387 ± 0.059. Take GGAGAGGAUACUAUACAUCCUACUAGCUCA: the “pre-steady-state target cleavage rate” value stood at 0.00683 ± 0.0037. The result for GGACUGGAUUCUAUACAACGUACUACCUCA reads 0.966 ± 0.072; that for GGAGACCUAUGAUAUGAACCACUACCUCA, < 0.0001; that for GGAGACCUAACUAUACAACGUACUACGUCA, 0.179 ± 0.037. For the sequence GGUCUGGAUACUAUACAACCUACGACCUCA, the “pre-steady-state target cleavage rate” value was found to be 0.462 ± 0.041. The result for GGAGACCUAUGUAUACAACCUACUAGCUCA reads 0.0329 ± 0.0067; that for GGAGACCAUACUAUACAACGAUCUACCUCA, < 0.0001. Consider GGAGACGAUACUAUUCAACCAACUACCUCA, for which the “pre-steady-state target cleavage rate” value was found to be 0.102 ± 0.0071.

Turning to GGUCUGGAUACUUUACAACCUACAACCUCA, the “pre-steady-state target cleavage rate” value was determined as 0.102 ± 0.02. For GCACUGGAUACUAUACAACCUACUAGCUCA, the “pre-steady-state target cleavage rate” value was found to be 0.243 ± 0.033.

As to GCUCAGGAUACUAUACAACCUACUAGCUCA, the “pre-steady-state target cleavage rate” value is 0.477 ± 0.041. Regarding GGUCUGGAUACUUUACAAGCUACUACCUCA, the “pre-steady-state target cleavage rate” value was 1.08 ± 0.05. Take GGAGUGGAUACUAACAACCUACUACCUCA: the “pre-steady-state target cleavage rate” value was 1.37 ± 0.11. The result for GGAGAGGAUACUAUCACAACCUACUACCUCA reads 1.09 ± 0.077. As for GGAGACCUAUGAAUUCAACCUACUACCUGA, the “pre-steady-state target cleavage rate” value is < 0.0001.

GGAGACCUAACUAUACAACCUACAUACCUCA: the “pre-steady-state target cleavage rate” value came to 0.315 ± 0.034. The result for GGAGAGGAUACUAUACAACCUACUACCUGCA reads 0.907 ± 0.073. Under GGAGUGGAUACUAUACAACCUUCAACCUCA stands 0.123 ± 0.016; under GGAGUGGAUUCUAAACAACCUACUACCUCA, 0.994 ± 0.069; under GGUCUCGUUACUAUACAACCUACUACCUCA, 1.7 ± 0.099. Under GGUCUGCAUACUUUACAACCUACUACCUCA stands 1.48 ± 0.12; under GGUCUGGAUACUAAACAACCUACUACCUCA, 1.81 ± 0.11; under GGAGUGCAUACUUUACAACCUACUACCUCA, 1.26 ± 0.086. On to GGAGACCUAACUAUAGAACCUACUACCUCA, for which the “pre-steady-state target cleavage rate” value came to 0.748 ± 0.076. The result for GGAGACCUAUGAAUACAACACUACUACCUCA reads < 0.0001; that for GGAGACCUUACUAUACAACGUACUACCACA, 0.489 ± 0.048; that for GGUCUGGAUACUAUACAACCUACUACCCUCA, 0.749 ± 0.087. Under “GGAGACCUAUGAUAUGAACCUACUACCUCC [g2:g14:cont:t1C]” stands < 0.0001; under GGAGUGGAUACUAUACAACCUACUAUCCUCA, 0.424 ± 0.04; under GCUCUGGAUACUAUACAACCUACAACGUCA, 0.425 ± 0.057.

GGAGAGGAUUCUAUACAACCUACUACCUCA: the “pre-steady-state target cleavage rate” value worked out at 1.7 ± 0.099. Under CCUCUGGAUACAAUAGAACCUACUACCUCA stands 0.99 ± 0.065.

Consider GGAGACCUAUCUUAUACAACCUACUACCUCA, for which the “pre-steady-state target cleavage rate” value was 0.485 ± 0.066. Under GCUCUGGAUAGUAUACAACGUACUACCUCA stands 0.539 ± 0.039.

The values are drawn from the supplement of paper PMC10338343.
